Results as given in patent US10626421B2, “Use of uric acid for culturing bacteria sensitive to oxygen tension” (FONDATION MEDITERRANEE INFECTION, priority 2014, dated 2020).

Assays:
Assay in all cases: Comparative aerobic culture on Schaedler 0.2% agar (Table 2)
Details in all cases: 37° C., AA 1 g/L, UA 400 mg/L
Peptoniphilus harei = tested on: Peptoniphilus harei
Finegoldia magna = tested on: Finegoldia magna
Clostridium glycolicum = tested on: Clostridium glycolicum
[1] = tested on: Campylobacter ureolyticus

| SMILES | colonies detected with the naked eye at t=96 h (Peptoniphilus harei) | colonies detected with the naked eye at t=96 h (Finegoldia magna) | colonies detected with the naked eye at t=96 h (Clostridium glycolicum) | colonies detected with the naked eye at t=96 h [1] |
| --- | --- | --- | --- | --- |
| O=C1O[C@H]([C@@H](O)CO)C(O)=C1O [ascorbic acid, reference compound] | 0 | 0 | 0 | 0 |
| O=c1[nH]c(=O)c2[nH]c(=O)[nH]c2[nH]1 [uric acid, 7,9-dihydro-1H-purine-2,6,8(3H)-trione] | 0 | 0 | Positive | 0 |
